In the RNAGym collection of RNA variant scans (doi:10.7554/elife.90254):
The source gives no read counts; variants with many changes may rest on few reads.

B1: OR4K15 (parent)
chain: GUUAACGGUCAUAGGCCAUGGAAACUAGGAGCACCAUUUCGCUGCCAGUGAAGAAAUGAACAAAGAAAAUCUGGGCCAGGCAGGCAUCAAAAGAAAUAGUCUUGCGCUCAACCAGAAAGUCUGUAAUCAUUUUAAGGGUA

Variants of: B1
Experiment: self-cleavage, relative activity (ratio to wild type); higher = more cleavage; in vitro, sequencing; the parent is a self-cleaving ribozyme

Row | Variant | self-cleavage
1 | GUUAACGGCCAUAGGCCAUGGAAACUAGGAGCACCAUUACGCUGCCGGUGAAGAAAUGAACAAAGAAAAUCUGGGCCAGGCAGGCAUCAAAAGAAAUAGUCUUGCGCUCAACCAGAAAGUCUGUAAUCAUUUUAAGGGUA [U9C U39A A47G] | 1.32
2 | GUUAGCGGUCAUAGGCCAUGGAAACUAGGAGCACCAUUUCGCUGCCAGUGAAGAAAUGAACAAAGAAAAUCUGGGCCAGGCAGGCAUCAAAAGAAAUAGUAUUGCGCUCCACCAGAAAGUCUGUAAUCAUUUUAAGGGUA [A5G C101A A110C] | 0.03
3 | GCUAACGGUCAUAGGCCUUGGAAACUAGGAGCACCAUUUCGCUGCCAGUGAAGAAAUGAACAAAGAAAAUCUGGGCCAGGCAGGCAUCAAAAGAAAUAGUUUUGCGCUCAACCAGAAAGUCUGUAAUCAUUUUAAGGGUA [U2C A18U C101U] | 0.18
4 | GUUAACGGUCAUAGGCCAUGGAAACUAAGAGCACCAUUUCGCUGCCUGUGAAGAAAUGAACAAAGAAAACCUGGGCCAGGCAGGCAUCAAAAGGAAUAGUCUUGCGCUCAACCAGAAAGUCUGUAAUCAUUUUAAGGGUA [G28A A47U U70C A94G] | 0.45
5 | GUUAACGGUCAUAGGCCAUGGAAACUAGGAGCACCAUUUCGCUGCCGGCGAAGAAAUGAACAAAGUAAAUCUGGGCCAGGCAGGCAUCAAAAGAAAUAGUCUAGCGCUCAACCAGAAAGUCUGUAAUCAUUUUAAGGGUA [A47G U49C A66U U103A] | 0.09
6 | GUUAACGGUCAUAGGCCAUGGAAACUAGGAGCACCAUUUCGCUGCCGGUGAAGAAGUGAACAAAGAAAAUCUGGGCCAGGCAGGCAUCAAAAGAAAUAGUCUUGCGCUCAACCAGAAAGUCUGUAAUCAUUCUAAGGGUA [A47G A56G U132C] | 0.95
7 | GUUAACGGUCAUAGGCCAUGGAAACUAGUAGCACCGUUUCGCUGCCAGUGAAGAAAUGAACAAAGAAAAUUUGGGCCAGGCAGGCAUCAAAAGAAAUAGUCUUGCGCUCAACCAGAAAGUCUGUAAUCAUUUUAAGGGUA [G29U A36G C71U] | 0.37
8 | GUUAACGGUCAUAGGCCAUGGAAACUAGGAGCACCAUUUCGCUGCCAGUGAAGAAAUGAGCAAAGAAAAUCUGGGCCAGGCAGGCAUCAAAAGAGAUAGUCUUGCGCUCAACCAGAAAGUCUGUAAUCAUUUUGAGGGUA [A60G A95G A134G] | 1.76
9 | GUUAACGGUCAUAGGCCAUGGAAACUAGGAGCACCGUCUCGCUGCCAGUGAAGAAAUGAACAAAGAAGAUCUGGGCCAGGCAGGCAUCAAAAGAAAUAGUCUUGCGCUCAACCAGAAAGUCUGUAAUCAUUUUAAGGGUA [A36G U38C A68G] | 2.12
10 | GUUAACGGUCAUAGGCCAUGGAAACUAGGAGCACCAUUUCGCUGCCAGUGGAGAAAUGAACAGAGAAAAUCUGGGCCAGGCAGGCAUCAAAAGAAAUAGUCUUGCGAUCAACCAGAAAGUCUGUAAUCAUUUUAAGGGUA [A51G A63G C107A] | 0.03
11 | GUUAGCGGUCAUGGGCCAUGGAAACUAGGAGCACCAUUCCGCCGCCAGUGAAGAAAUGAACAAAGAAAAUCUGGGCCAGGCAGGCAUCAAAAGAAAUAGUCUUGCGCUCAACCAGAAAGUCUGUAAUCAUUUUAAGGGUA [A5G A13G U39C U43C] | 0.65
12 | GUUAACGGUCGUAGGCCAUGGAGACUAGGAGCACCAUUUCGCUGCCAGUGAAGAAAUGAACAAAGGAAAUCUGGGCCAGGCAGGCAUCAAAAGAAAUAGUCAUGCGCUCAACCAGAAAGUCUGUAAUCAUUCUAAGGGUA [A11G A23G A66G U102A U132C] | 1.42
13 | GUUAACGGUCAUAGGCCAUGGAGACUAGGAGCACCAUUUCGCUGCCAGUGAAGAAAUGAACAAAGAAAAUCUGGGCCAGGCAGGCAUCAAAAGAAGUAGUCUUGCGCUCAACCAGAAAGACUGUAAUCAUUUUGAGGGUA [A23G A96G U120A A134G] | 1.84
14 | GUUACCGGUCAUAGGCCAAGGAAACUAGGAGCACCACUUCGCUGCCAGUGAAGAGAUGAACAAAGAAAAACUGGGCCAGGCUGGCAUCAAAAGAAAUAGUCUUGCGCUCAACCAGAAAGUCUGUAAUCAUUUUAAGGGUA [A5C U19A U37C A55G U70A A82U] | 0.21
15 | GUUAACGGUCACAGGCCAUGGAAACUAGGAGCACCAUUUCGCUGCCGGUGAAGAAAUGAACAAAGAAAAUCUGGGCCUGGCAGGCAUCAAAGGAAAUAGUCUUGCGCUCAACCAGAAAGUCUGUAAUCAUUUUAAGGGUA [U12C A47G A78U A92G] | 0.4
16 | GUUAACGGUCAUAGGCCAUGGAAACUAGGAGCACCAUUUCGCUGCCAGUGAAGAAAUGAACAAAGAAAACCUGGGCCAGGCAGGCAUCCAAAGAAAUAGUCUCGCGCUCAACCAGAAAGUCUGUAAUCAUUUUAAGGGUA [U70C A89C U103C] | 0.21
17 | GUUAACGGUCAUAGGCCAUGGAAACUAGGAGCACCAUUUCGCUGCCAGUGGAGAAAUGAACAAAGAAAAUCUGGGCCAGGCAGGCAUCAAAAGAAAUAGUCCUGCGCUCGACCAGAAAGUCUGUAAUCAUUUUAAGGGUA [A51G U102C A110G] | 0.26
18 | GUUAACGGUCAUAGGCCAUGGGAACUAGGAGCACCAUUUCGCUGCCAGUGAAGAAAUGAAGAAAGAAAAUCUGGGCCAGGCAGGCAUCAAAAGAGAUAGUCUUGCGCUCAACCAGAAAGUCUGUAAUCACUUUAAGGGUA [A22G C61G A95G U130C] | 0.46
19 | GUUAACGGUCAUAGGCCAUGGAAACUAGGAGCACCAUUUCGCUGCCAGUGAAGAAAUGAACAAAGAAGUUCUGGGCCAGGCAGGCAUCGAAAGAGAUAGUCUUGCGCUCAACCAGAAAGUCUGUAAUCAUUUUAAGGGUA [A68G A69U A89G A95G] | 2.2
20 | GUUAACGGUCAUAGGCCAUGGGAAUUAGGAGCUCCAUUUCGCUGCCAGUGAAGAAAUGAACAAAGAAAAUCUGGGCCAGGCAGGCAUCAAAAGAAAUAGUCUUGCGCUCAACCAGAAAGUCUGUAAUCAUUUUAAGGGUA [A22G C25U A33U] | 1.48
